# Laboratory results as given in PMC12136788.
# The other results are listed elsewhere or left out.
# T1: UNK ZnF1-3 (human, UniProt Q9C0B0 31-174)
# T1 sequence: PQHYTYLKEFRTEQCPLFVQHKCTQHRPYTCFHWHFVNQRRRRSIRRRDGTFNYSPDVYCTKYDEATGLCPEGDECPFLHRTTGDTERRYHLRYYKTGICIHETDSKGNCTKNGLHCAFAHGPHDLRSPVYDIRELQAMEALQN
# B1: chr1:52246310:52246311:-_ENSMUSG00000026103_ENSMUST00000114513|mus_hu|motif|central (ssRNA)
# RNA: GGGAGUUCUACAGUCCGACGAUCGCCCAUCUUAUCCAGAGGAGGAGACCAGCACAUCAUACCCAUAACAUUGGGGACAACGGAAAGAAUGCCCCCAGCAACUCCAGAUUUUGCAGGAAGACCAACAUGGAAAGCAAACUGCCCCAACAGAGGAUUGAGCAUCA
# B2: chr11:86887402:86887403:-_ENSMUSG00000061666_ENSMUST00000020804|mus_hu|FALSE|FALSE (ssRNA)
# RNA: GGGAGUUCUACAGUCCGACGAUCAGAGAUGUGUUUACUGAGGAAUCGCUGCUUCUUUCUCUGGUGCAGCAAGGUCGGGUAUUUAAGCAACAAGAAUGAGGUCACCAAGUAUCCUCCUAGCGUAGAGAGAAGGUAAAAAGCCGCCAACAGAGGAUUGAGCAUCA
# B3: 53988852_53988972_2293_3pUTR_ENSMUSG00000061603_ENSMUST00000095737|mouse|control|control (ssRNA)
# RNA: GGGAGUUCUACAGUCCGACGAUCUGUAGCAGAAUGGCUCUCAUUCUUCUCAGAGGAUGAAGGUCUCUCUGAUUUCUCAUCAGUGAACUUUUUCAUGCCGGAGAGGGGCAUACAUAAGUCCUCAUCAGAAAGAAUGUCACUCAGCAACAGAGGAUUGAGCAUCA
# B4: chr2:144966258:144966259:-_ENSG00000121964_ENST00000344850|hu_hu|FALSE|FALSE (ssRNA)
# RNA: GGGAGUUCUACAGUCCGACGAUCUGUCCGGGCUCUCCAAUGCCAUUUCUUUGCAGGAAGGGUAUAAACGACACAGUCUCCUAACUCUUCUUGAAGAAGAUCCACCAGCUGUUUAUGGGAGCCUCCAUAGAAUGCUUCAAUGAUCAACAGAGGAUUGAGCAUCA
# B5: chr19:8913112:8913113:-_ENSMUSG00000071658_ENSMUST00000096259|mus_mus|FALSE|FALSE (ssRNA)
# RNA: GGGAGUUCUACAGUCCGACGAUCAAGCUGGCCUCAAUCUUAAGCUGUUCCACCAUCUUGCGUGCUUGACCAAUACUCAUAGUGCUGUUAACGGGGGUCUCCCCUUUCAUCCUGAAGUAACAGCAGCGGCAGCCAGGGAUGUAGCAACAGAGGAUUGAGCAUCA
# B6: chr5:36177297:36177298:+_ENSG00000145604_ENST00000274255|hu_hu|FALSE|FALSE (ssRNA)
# RNA: GGGAGUUCUACAGUCCGACGAUCCUUUAGCAUGACACUAUCACUUAAGUCUAGAUGGACAAGAUUGGGGCAUCUUCUAACUAAAGUAGAGAGAUCUGAUUUCUGGAGAUUCUUUCUGUAGCCGCUAAGAUUCAGCUGGGUGAUCAACAGAGGAUUGAGCAUCA
# B7: chr12:48362563:48362564:+_ENSG00000134291_ENST00000256686|hu_hu|hu_hu_hu_mus_False|8_68 (ssRNA)
# RNA: GGGAGUUCUACAGUCCGACGAUCUCCGUCAAGCCCUUCGAUAGACCCUUGCGGGGGAAACUGUAAUAAUUCUAACUGGGGAAGGAAAAGAAACGCCAAAAACUUUCCAAAAAGCGGGGGUGGGGUGUCCCAGGCCUGGGAGGUCAACAGAGGAUUGAGCAUCA
# B8: chr4:115894766:115894767:+_ENSMUSG00000028698_ENSMUST00000030464|mus_hu|mus_mus_mus_hu_True|98_98 (ssRNA)
# RNA: GGGAGUUCUACAGUCCGACGAUCUUCCACACGGAAAGUACUUGGGGGUUUUCCAACGGCCAGUACCAGUCCGGCCAAACUACCCGAACAGGGUCCUCCCCCUCUCUCCUACAGAACACAACAAAAUGCCCCCGAACUUUCAAGCAACAGAGGAUUGAGCAUCA
# B9: chr5:128440902:128440903:+_ENSG00000066583_ENST00000173527|hu_mus|hu_hu_hu_mus_True|8_98 (ssRNA)
# RNA: GGGAGUUCUACAGUCCGACGAUCUUGAACGGUGCUGCCAAGACCUUUGGGGUAUUGUUCCGUUAUGAUAACUGGAAUCCCUAAGAUCCGAGCUCCUUGCAACAGUCUCUGUCCCACACUAAUGAUGUCCCCAAAAUAUUUGAUCAACAGAGGAUUGAGCAUCA
# B10: chr4:33332862:33332863:-_ENSMUSG00000040128_ENSMUST00000049357|mus_hu|FALSE|FALSE (ssRNA)
# RNA: GGGAGUUCUACAGUCCGACGAUCAUAUACAAAACACCUGCAAUGUGGGCAGGGCAAAAUACAUACUUUCAUAACAAAACUAUAAUAUACCUCUCAAGUAUGAACAAUAUACACAUAAUACAUGGUAUACAGUAUUUACAAAAUCAACAGAGGAUUGAGCAUCA
# B11: chr4:39507275:39507276:-_ENSG00000109814_ENST00000316423|hu_mus|FALSE|FALSE (ssRNA)
# RNA: GGGAGUUCUACAGUCCGACGAUCACUGGAGGAUUCUCUGGUAUCACCAGUAUCCUUUUUGAAUGCAAACCCCAAGAUAGCUAUCUUCUUAUCGGUCACUGUAUUAAACAGGCUAUCUAUGAUCCGUGAUGCAAACCUCCUCCUCAACAGAGGAUUGAGCAUCA
# B12: chr1:220276048:220276049:+_ENSG00000067704_ENST00000302637|hu_hu|hu_hu_hu_mus_True|58_78 (ssRNA)
# RNA: GGGAGUUCUACAGUCCGACGAUCGCAAAUUGCCUGGUUGGCGGGAAUUGUCCAAGGUUGUGUGGUCCAAACUAAAAUACUAACAGGGGAUGAGGCAUCUGUAAGAGACUCCAACUUCGGAGGAGGUCUCAGGAGGGGGAAUCUCAACAGAGGAUUGAGCAUCA
# B13: chr12:16048344:16048345:+_ENSG00000023734_ENST00000419869|hu_hu|hu_hu_hu_mus_True|1_68 (ssRNA)
# RNA: GGGAGUUCUACAGUCCGACGAUCAGAUCGUCCAUAAGUAAUAACCAAAAUCUCUCCUUCAGGAAUAUAUUCCAUACUGCUAACAGACAUAUUAAAAUUCAGAGAUUUCACUUCUGUCAUUGUGGCAUGAUCCCAGAGUCGAACCAACAGAGGAUUGAGCAUCA
# B14: chr2:9570881:9570882:+_ENSG00000119203_ENST00000238112|hu_mus|hu_hu_hu_mus_False|28_98 (ssRNA)
# RNA: GGGAGUUCUACAGUCCGACGAUCACUUGUCUUCUGAAGAAACCAGGGCAGGGCUCCACAGUGAUCCAAAUGGAAAUGACUGAUCAACAGAAGGUCGAUCUCAGCUGGGUCAAUUAAGUCAAUGUAAGGAAGGGCAUCCAUUCCCAACAGAGGAUUGAGCAUCA
# Biological target: T1, UNK ZnF1-3
# Test: nsRBNS (natural sequence RNA bind-n-seq); RBNS binding buffer (assumed for nsRBNS): 25 mM Tris pH 7.5, 150 mM KCl, 3 mM MgCl2, 0.01% Triton X-100, 500 ug/ml BSA, 20 U/ml SUPERase-In, 4 C; UNK is unkempt and MSI1 is Musashi-1; names of the RNAs are library labels; protein concentration not given here; high values mean tight binding
row,Binder,binding signal
1,B1,1.86 enrichment R
2,B2,0.911 enrichment R
3,B3,0.901 enrichment R
4,B4,0.786 enrichment R
5,B5,1.14 enrichment R
6,B6,0.807 enrichment R
7,B7,2.08 enrichment R
8,B8,1.15 enrichment R
9,B9,0.629 enrichment R
10,B10,0.688 enrichment R
11,B11,0.95 enrichment R
12,B12,2.17 enrichment R
13,B13,1.02 enrichment R
14,B14,1.7 enrichment R
